# Test results taken from PubChem BioAssay (NCI).
#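 Briefly, cells in 96-well plates were exposed to five compound concentrations for 48 h, and endpoints were estimated by linear interpolation. The concentration for 50% growth inhibition is given as GI50. Definition used: TGI = concentration required for complete inhibition of growth.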
# Tested on: NCI-H322M lung
# Assay: NCI tumour cell line growth inhibition, 48 h
SMILES,TGI,GI50 [µM]
COc1ccc(CCN2CCc3c(C)c(C#N)c4nc5ccccc5n4c32)cc1OC,> 100 µM,
CN1C(=O)C(O)CC1c1cccc(C(F)(F)F)c1 (centres undefined),> 100 µM,
CCOC(=O)c1cn(C)c(=S)n2c1nc1ccccc12,> 100 µM,
COc1cccc(/C=C/C(=O)c2cc3c(N)c(C(=O)Nc4cccc5ccccc45)sc3nc2C)c1,> 50 µM,1.94
CN(C)C(=S)Oc1ccc2ccc(=O)oc2c1,> 100 µM,
CO[C@H]1C[C@H](O[C@H]2CC[C@]3(C=O)[C@H]4CC[C@]5(C)[C@@H](C6=CC(=O)OC6)CC[C@]5(O)[C@@H]4CC[C@]3(O)C2)O[C@H](C)[C@H]1O,4.08 µM,
CCOP(=O)(Nc1ccc2oc(=O)c3ccccc3c2c1)OCC,> 100 µM,
O=C1CN(/N=C/c2ccc(-c3ccc(F)cc3)o2)C(=O)N1,> 100 µM,
CCC1CNC(=O)CC1CC(=O)OC (centres undefined),> 100 µM,
CC(=O)Oc1ccc2c(c1)CC[C@@H]1C2CC[C@]2(C)C(=O)NC(=O)CC12 (some centres undefined),> 100 µM,
COC(=O)C1=C(O)C(C(=O)OC)[C@]2(O)[C@H](C(=O)OC)[C@H]1C[C@@H](c1ccc([N+](=O)[O-])cc1)[C@H]2C(=O)OC (some centres undefined),68.8 µM,
Cc1ccc(C(C)C)cc1NC(=O)Nc1ccc([N+](=O)[O-])cc1,12.7 µM,3.2
COc1ccc2nc3ccccc3c(NCCCCN(C)CCCl)c2c1,2.38 µM,
Cc1nc2ccc(Cl)cc2c2c1CCN2c1ccccc1,49.9 µM,
NC(=O)Cc1nc2c(=O)[nH]cnc2n1C1OC(CO)C(O)C1O (centres undefined),> 100 µM,
Cc1nc(-n2nc(-c3ccccc3)cc2-c2ccccc2)sc1C(/C=C/c1ccc([N+](=O)[O-])cc1)=N/NC(=O)c1ccncc1,> 100 µM,
COc1ccc(C2CCc3cc4c(cc3/C2=N/OC(C)=O)OCO4)cc1OC (centres undefined),> 100 µM,
CC1(C)CC[C@]2(C(N)=O)CC[C@]3(C)C(=CC[C@@H]4[C@@]5(C)C/C(=C/c6ccncc6)C(=O)C(C)(C)[C@@H]5CC[C@]43C)[C@@H]2C1,11.4 µM,2.59
COc1c(C)c(C/C=C(\C)CC/C=C(\C)CCC=C(C)C)c(OC)c(OC)c1OC,> 100 µM,
Cc1cc(Cl)ccc1NS(=O)(=O)c1ccc(-c2cnc(C3CC3)o2)cc1,26.6 µM,0.669
O=C(CC1Sc2ccccc2NC1=O)Nc1ccc(Cl)cc1 (centres undefined),> 100 µM,
Cc1nc(N)nc2ccccc12,> 100 µM,
C[C@]12CC[C@H](OC3CCCCO3)CC1=CC[C@@H]1C2CC[C@]2(C)/C(=N/O)CCC12 (some centres undefined),65.6 µM,
CC(=O)C1C(=O)N(C(C)C)C[C@@H]2CCC(=O)C[C@H]12 (some centres undefined),> 100 µM,
CC1=NN(C(=O)c2ccccc2O)C(=O)/C1=C/c1cccc([N+](=O)[O-])c1,> 100 µM,

SMILES,TGI,GI50 [µM]
COc1cnc2cc(C(=O)O)c3ccccc3c2c1,> 100 µM,
N/C(=N\Nc1ccc(S(N)(=O)=O)cc1)c1cnccn1,> 100 µM,
C[N+](C)(C)CC1CCCC(C[N+](C)(C)C)C1O (centres undefined),> 100 µM,
COC(=O)c1c(C)nc(C)c(NO)c1-c1ccccc1C(F)(F)F,> 100 µM,
CSc1ccc(/C=C2\N=C(c3ccccc3)N(/N=C/c3cc4cc(C)ccc4nc3Cl)C2=O)cc1,> 100 µM,
CC1CC/C(=C\c2ccc(Cl)cc2)c2nc(N)c(C#N)c(-c3ccc(Cl)cc3)c21 (centres undefined),> 100 µM,
NCCC1CN(C(=O)OCc2ccccc2)c2ccccc21 (centres undefined),54.3 µM,
Cc1cc(C(O)CN(C)C)cc2c1ccc1cc(C(C)C)ccc12 (centres undefined),3.76 µM,1.97
O=C1C=CC2(C=C1)C[C@H](NC(=O)C(F)(F)F)C(=O)O2,> 100 µM,
Nc1[nH]c(=O)ncc1CO,> 100 µM,> 100
CCOP(=O)(OCC)/C(C#N)=C/c1cccn1Cc1ccccc1,> 100 µM,
Cc1ccc(/C(O)=C/c2nc3ccc([N+](=O)[O-])cc3nc2/C=C(\O)c2ccc(C)cc2)cc1,> 100 µM,
S=c1nc(-c2ccnc(-c3nc(=S)[nH][nH]3)c2)[nH][nH]1,> 100 µM,
NC(=O)CO/N=C1/C(c2c(O)[nH]c3ccccc23)=Nc2ccccc21,> 100 µM,
CCCCCCCCCCCCCCCCOC(=O)c1cc(O)cc(C(=O)OCCCCCCCCCCCCCCCC)c1,> 100 µM,
Cc1ccc(NC(=O)CC(=O)N2N=C(N(CCC#N)c3cccc(C)c3)CC2c2ccccc2)cc1 (centres undefined),> 100 µM,
C=[CH][Sn]([CH]=C)([O]c1cccc2cccnc12)[O]c1cccc2cccnc12,16.4 µM,5.65
CC(NC(=O)c1ccccc1)(C(=O)O)C(=O)O,> 100 µM,
C=C1C(=O)O[C@H]2[C@H]3O[C@@H](C[C@@H]12)[C@](C)(O)CC[C@@H]1O[C@@]1(C)CCC[C@H]3C,> 100 µM,
COC(=O)/C(=N/NC(N)=O)C(C(=O)OC)C(=O)C(=O)Nc1ccc(Cl)cc1 (centres undefined),> 100 µM,
COc1ccc(OC)c2c3c(ccc12)C(c1ccccc1)OC3=O (centres undefined),> 100 µM,
CC1(C2CCC3(C)OC3C2)CO1 (centres undefined),> 100 µM,
C/C=C1\C(=O)OC2CCN3CCC(COC(=O)C(C)(O)C(C)C1O)C23 (centres undefined),> 100 µM,
O=C1C=CC(=O)c2c(O)c(N3CCN(CCOCCO)CC3)c(Cl)c(O)c21,3.92 µM [middle of 4 runs],
CC(=O)N(Cc1ccccc1)c1ccccc1I(=O)=O,> 100 µM,> 100

SMILES,TGI,GI50 [µM]
COc1cc2c(c(OC)c1OC)-c1ccc(SC)c(=O)cc1[C@@H](NC(=O)c1ccc(Cl)cc1)CC2,> 100 µM,
CCOC(=O)[C@H]1Nc2ccccc2C2c3ccccc3CC21 (some centres undefined),> 100 µM,
CO[C@]1(CN2CCN3CCCC[C@@H]3C2)/C=C/C[C@H](C)[C@@H](C)S(=O)(=O)NC(=O)c2ccc3c(c2)N(C[C@@H]2CC[C@H]21)C[C@@]1(CCCc2cc(Cl)ccc21)CO3,8.18 µM,2.34
O=C(c1ccco1)N(C(=S)OC12CC3CC(CC(C3)C1)C2)c1ccccc1,> 100 µM,
CN1CCN(c2nc(-c3ccncc3)nc3sc4c(c23)CCCCCC4)CC1,26.2 µM,13.1
O=c1cc(-c2ccccn2)[nH]c2ccc(Cl)cc12,> 100 µM,
CC(C)(C)OC(=O)n1cc(C2CN(O)C(=O)C23CCC(=O)N3Cc2ccccc2)c2ccccc21 (centres undefined),> 100 µM,
Cc1c(C(=O)CSc2nc3ccccc3[nH]2)c(=O)n(-c2ccccc2)n1C,> 100 µM,
N#CC1C=Cc2ccccc2N1C(=O)Oc1ccccc1 (centres undefined),> 100 µM,
O=C(Cc1csc2nc(-c3ccc(Br)cc3)cn12)N/N=C/c1ccc(O)cc1,34.6 µM,4.4
O=C(Nc1ccccc1C(=O)N/N=C(\c1ccccc1)c1ccccn1)c1ccc(F)cc1,> 100 µM,0.206
O=C(Nc1cccc(NC(=O)c2cc(=O)c3ccccc3o2)n1)c1cc(=O)c2ccccc2o1,> 100 µM,
CC1CC[C@]2(C(=O)O)CCC3(C)C(=CCC4[C@@]5(C)CC[C@H](OS(=O)(=O)c6ccccc6)C(C)(C)C5CC[C@]43C)[C@@H]2[C@H]1C (some centres undefined),> 100 µM,
COc1ccc(-c2cc(C(O)C3CCCCN3)c3ccccc3n2)cc1 (centres undefined),21.1 µM,
CCCCCCCCCCCCCc1nn[nH]n1,32.8 µM,
CCOP(=O)(OCC)C(C)(CC)NC(=O)C(C(F)(F)F)C(F)(F)F (centres undefined),> 100 µM,
Cc1csc(NC(=NCCN2CCOCC2)Nc2nc(C)cs2)n1,> 100 µM,
Nc1ccc2c(c1)c(N)nn2C(=O)Nc1ccc(Cc2ccccc2)cc1,27.5 µM,13
C#CCC1(C(=O)OCC)C(=O)c2ccccc2N(C)C1=O (centres undefined),> 100 µM,
CCCNc1ncnc2[nH]ncc12,> 100 µM,
CC1COCC(C)N1C1=C(Cl)C(=O)c2ccccc2C1=O (centres undefined),29.1 µM,15.4
COC(=O)[C@@H]1CN(C(=O)c2ccccc2)C(=O)N1C(=O)OCc1ccccc1,> 100 µM,
COc1nc(NC2OC(COC(C)=O)C(OC(C)=O)C(OC(C)=O)C2OC(C)=O)c(-c2csc(N)n2)c(=O)n1C (centres undefined),> 100 µM,
C=C(C)[C@@H]1CC[C@]2(C(=O)O)CC[C@]3(C)[C@H](CCC4[C@@]5(C)CC[C@H](C(=O)/C=C/c6ccc(O)c(O)c6)C(C)(C)[C@@H]5CC[C@]43C)[C@@H]12 (some centres undefined),27.1 µM,
CC(=O)Nc1cc(Nc2cc(=O)[nH]c(=O)[nH]2)ccc1C,> 100 µM,

SMILES,TGI,GI50 [µM]
CO[C@@]12[C@@H]3NC3CN1C1=C(C(=O)C(N)=C(C)C1=O)[C@@H]2COC(N)=O (some centres undefined),2.69 µM,
CCOC(=O)C1CCCCN1CCc1c[nH]c2ccccc12 (centres undefined),> 100 µM,
O=C(NCCCCCCCNC(=O)OCc1ccc2c(Cl)cc(Cl)c(O)c2n1)OCc1ccc2c(Cl)cc(Cl)c(O)c2n1,3.36 µM,1.68
O=C1c2ccccc2C(=O)N1c1nc(-c2ccc(Cl)cc2)cc(N2N=C(c3ccc(Br)cc3)CC2c2ccccc2)n1 (centres undefined),> 100 µM,
CSc1ccc(C(=O)C(=O)c2ccc(SC)s2)s1,> 10 µM,
CCOC(=O)C(NC(=O)c1[nH]cnc1/N=N/N(C)C)C(C)C (centres undefined),> 100 µM,
CNC(=O)CN(CC(N)=O)C(N)=O,> 100 µM,
Cc1cc(Cl)ccc1Nc1nc(C(F)(F)F)ccc1C(=O)N1CCN(c2cccc(Cl)c2)CC1,> 100 µM,> 100
O=C(/C=C/c1cccs1)c1ccccc1Cl,28.8 µM,
CCOC(=O)C1COc2cc(-c3cc(=O)c4ccccc4o3)ccc2O1 (centres undefined),> 100 µM,
CC(C)OC1OC(CO)C(O)CC1n1cc(F)c(=O)[nH]c1=O (centres undefined),> 100 µM,
CN(C)c1ccc(/C=C2\N=C(c3ccccc3)N(c3ccc4c(c3)Sc3cc(N5C(=O)/C(=C/c6ccc(N(C)C)cc6)N=C5c5ccccc5)ccc3N4)C2=O)cc1,30.8 µM,
COc1cccc(C2NC(=S)NC(C)=C2C(=O)Nc2ccc(Cl)c(Cl)c2)c1 (centres undefined),25.8 µM,10.8
CC1(C)OC2C(COS(N)(=O)=O)SC(n3cnc4cncnc43)C2O1 (centres undefined),> 100 µM,> 100
CC(C)(C)C1CC[C@H](O)[C@H]([C@H](O)CC2CC(=O)N(c3ccccc3)C(=O)C2)C1 (some centres undefined),> 100 µM,
Oc1[nH]c2cc(Cl)ccc2c1/C=c1/ccc2c(c1)N=C(c1cc(F)cc(F)c1)N=2,24.4 µM,4.82
O=C1C=CC(=O)c2c(Cl)ccc(O)c21,80.1 µM,
N#Cc1nc(C#N)n(C(=O)c2ccccc2)c1NC(=O)c1ccccc1,> 100 µM,
C/C(=N\Nc1nc2ccccc2[nH]1)c1cc2ccccc2cn1,1.61 µM,
COC1(OC)c2no[n+]([O-])c2C(OC)(OC)c2c1no[n+]2[O-],31 µM,
CN1CCc2c1nc(-c1ccc([N+](=O)[O-])cc1)c1c2N(C)CC1,> 100 µM,
CC(=O)CC(=O)CCC(=O)O,> 100 µM,
CC1CC2(C)CC(=O)C1C1C(=O)N(CCN3CCCCC3)C(=O)C12 (centres undefined),> 100 µM,> 100
CC1CCC2N(C1)CC1C3(O)CC45OC6(O)C(O)CCC4(C)C6CCC5C3(O)CC(O)C1(O)C2(C)O (centres undefined),> 100 µM,
